Hit rate of the full screen: of about 3,200 compounds, about 300 (9.4%) showed activity. This is a selection; strong and weak results do not stand in their true shares.
Tested on: A673/TR/shEF
Experiment: cell viability (LOESS-normalised, relative to median of negative controls) (log2 ratio); higher = more viable cells (less compound effect), active = hit call of the paper (over 3 MAD below the median)
Settings: treatment time: 72 h
Summary of the method: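 A673/TR/shEF Ewing sarcoma cells were plated at 1,500 per well in 384-well plates and cultured with or without doxycycline, added 24 h before compounds, to induce EWS-FLI1 shRNA knockdown. Library compounds at two or more concentrations, alongside DMSO controls, were applied for three days. Cell viability was measured by CellTiter-Glo luminescence on an Envision reader. Readings were LOESS-corrected per plate, divided by the median of negative controls and log2-transformed, and hits were wells lying at least three median absolute deviations from the median of all screened wells.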

[1] = 0.25 µM, library screen: screen2, EWS-FLI1 expression: high (no doxycycline)
[2] = 0.25 µM, library screen: screen2, EWS-FLI1 expression: low (doxycycline-induced shRNA knockdown)
[3] = 2.5 µM, library screen: screen2, EWS-FLI1 expression: high (no doxycycline)
[4] = 2.5 µM, library screen: screen2, EWS-FLI1 expression: low (doxycycline-induced shRNA knockdown)
[5] = 0.25 µM, library screen: screen1, EWS-FLI1 expression: high (no doxycycline)
[6] = 0.25 µM, library screen: screen1, EWS-FLI1 expression: low (doxycycline-induced shRNA knockdown)
[7] = 2.5 µM, library screen: screen1, EWS-FLI1 expression: high (no doxycycline)
[8] = 2.5 µM, library screen: screen1, EWS-FLI1 expression: low (doxycycline-induced shRNA knockdown)

Measured: cell viability (log2)

Oc1cc2c(cc1O)CN(C(=S)NCCc1ccc(Cl)cc1)CCC2
inactive: [1] 0.163 | [2] 0.0221 | [3] 0.0522 | [4] 0.0425

Nc1nc(Cl)nc2c1ncn2[C@@H]1O[C@H](COP(=O)(O)OP(=O)(O)OP(=O)(O)O)[C@H](O)C1O (stereo not given in full)
inactive: [1] 0.146 | [2] 0.0571 | [3] 0.0213 | [4] 0.0355

CCCCCCCC/C=C\CCCCCCCC(=O)NCCO
inactive: [1] 0.126 | [2] 0.0596 | [3] 0.166 | [4] 0.108

CNCC[C@@H](Oc1ccc(C(F)(F)F)cc1)c1ccccc1
inactive: [1] 0.0975 | [2] 0.0761 | [3] 0.0807 | [4] 0.106

COc1ccc(C(=O)O)c(O)c1OC
inactive: [5] 0.0449 | [6] 0.066 | [7] 0.127 | [8] -0.0146

Cc1cc(C)cc(OCC2CNC(=O)O2)c1 (stereo not given)
inactive: [5] 0.0439 | [6] 0.0798 | [7] 0.0712 | [8] -0.0117

C[C@]12C=CC(=O)C=C1CC[C@H]1[C@@H]3C[C@@H](O)[C@](O)(C(=O)CO)[C@@]3(C)C[C@H](O)[C@@]12F
inactive: 0.103 µM, library screen: screen3, EWS-FLI1 expression: high (no doxycycline) 0.102 | 0.103 µM, library screen: screen3, EWS-FLI1 expression: low (doxycycline-induced shRNA knockdown) 0.0482 | [5] 0.0174 | [6] -0.0301 | [1] 0.00413 | [2] 0.089 | 0.308 µM, library screen: screen3, EWS-FLI1 expression: high (no doxycycline) 0.13 | 0.308 µM, library screen: screen3, EWS-FLI1 expression: low (doxycycline-induced shRNA knockdown) 0.0928 | 0.926 µM, library screen: screen3, EWS-FLI1 expression: high (no doxycycline) 0.0937 | 0.926 µM, library screen: screen3, EWS-FLI1 expression: low (doxycycline-induced shRNA knockdown) 0.0919 | [7] 0.162 | [8] -0.0256 | [3] 0.208 | [4] 0.18 | 2.8 µM, library screen: screen3, EWS-FLI1 expression: high (no doxycycline) 0.119 | 2.8 µM, library screen: screen3, EWS-FLI1 expression: low (doxycycline-induced shRNA knockdown) -0.0445 | 8.3 µM, library screen: screen3, EWS-FLI1 expression: high (no doxycycline) 0.145 | 8.3 µM, library screen: screen3, EWS-FLI1 expression: low (doxycycline-induced shRNA knockdown) 0.095 | 25 µM, library screen: screen3, EWS-FLI1 expression: high (no doxycycline) 0.145 | 25 µM, library screen: screen3, EWS-FLI1 expression: low (doxycycline-induced shRNA knockdown) 0.173

CC1(C)O[C@@H]2C[C@H]3[C@@H]4CCC5=CC(=O)CC[C@]5(C)[C@@]4(F)[C@@H](O)C[C@]3(C)[C@]2(C(=O)CCl)O1
inactive: [5] 0.0561 | [6] -0.0391 | [7] 0.0522 | [8] -0.14

CC(C)Oc1ccc2c(=O)cc(-c3ccccc3)oc2c1
inactive: [5] 0.0261 | [6] 0.0825 | [7] 0.241 | [8] 0.291

CC(=O)O[C@@H]1CC2C(C)(C)C=CC(=O)[C@]2(C)C2CC[C@@]3(C)[C@H](c4ccoc4)OC(=O)C4OC43[C@@]21C (stereo not given in full)
inactive: [5] 0.059 | [6] 0.0804 | [7] 0.118 | [8] 0.149

CCOC(=O)c1c(C)cc(O)c(C=O)c1O
inactive: [5] 0.0533 | [6] 0.0573 | [7] 0.128 | [8] -0.00093

From the supplement of paper PMC6089552
